Screen size: about 320,000 compounds; about 7,600 (2.4%) were called active. The inconclusive results got no clear call from the source; some entries with a clear call stand among them for comparison. Calls follow the shape of the dose curve; as a rule, active = well fitted activation curve with a large enough effect; inconclusive = small, poorly fitted or top-dose-only effect; inactive = no such curve, though single readings can be large or run the other way. Potencies of inconclusive entries are left out as doubtful fits.
assay: qHTS Assay for NPC1 Promoter Activators; settings: Huh7 NPC1 promoter luciferase reporter, 24 h; series mostly up to 9.22 µM; activation: at the top concentration; also: nearly all actives have a fitted effect of over 60% in size;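 as to activation: reporter is driven by a mutant NPC1 promoter; % of control where 0% means no effect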
How it was run: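 In 1536-well qHTS, Huh7 cells harboring an NPC1 promoter–luciferase construct received compound for 24 h; activation was quantified by luminescence following luciferase reagent addition.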
Potency is read from the fitted curve at half-maximal effect; tags tell the direction and shape of the fitted curve.

Structure (SMILES)	Potency	activation
CC(C)(C)C1CCc2c(C(=O)N/N=C/c3cccs3)csc2C1 (configuration not stated)	inconclusive [activator, single point]	
CCOc1cc(CN2CCN(c3cccc(C(F)(F)F)c3)CC2)ccc1OC		inactive: 1.87%
Fc1ccc(/C=N/Nc2cc(N3CCOCC3)ncn2)cc1	inconclusive [activator, single point]	
COc1ccccc1NC(=S)N1CCC(C(=O)c2ccc(F)cc2)CC1		inactive: 1.5%
CC(=O)Oc1ccc(C(=O)Nc2cc(C)on2)cc1	inconclusive [activator, single point]	
O=C(Cc1cccs1)NCc1cccc(Br)c1	inconclusive [activator, single point]	
CCOc1ccccc1N(CC(=O)Nc1c(C)n(C)n(-c2ccccc2)c1=O)S(=O)(=O)c1ccccc1		inactive: -3.35%
COC(=O)Cc1ccc(NC(=O)c2ccc(C)c(C)c2)cc1	inconclusive [activator, partial curve]	
Cc1ccc(C(=O)Nc2sc(C(=O)N(C)C)c(C)c2C#N)cc1		inactive: -1.09%
Cc1cc(C)c2c3c(sc2n1)C(c1ccccc1)C(C#N)=C(N)O3 (configuration not stated)	inconclusive [activator, partial curve]	
O=C(c1ccccc1)c1c[nH]c(C(=O)NNc2ccccc2)c1		inactive: -3.35%
O=C(/C=C/c1ccccc1[N+](=O)[O-])NCCN1C(=O)S/C(=C\c2ccc(F)cc2)C1=O	inconclusive [activator, partial curve]	
Fc1ccc(C2=NNC(=NCc3ccccc3)SC2)cc1F	inconclusive [activator, single point]	
Nc1nc2c(cnn2CCc2ccccc2)c2nc(-c3ccco3)nn12	inconclusive [activator, partial curve]	
Cc1ccc(-c2nc3cc(N)ccc3o2)c(C)c1	inconclusive [activator, full curve]	
O=C(NC(=S)Nc1ccc(Cl)cn1)C12CC3CC(CC(C3)C1)C2	inconclusive [activator, single point]	
CCC/C(=N\NC(=O)c1csc(C)c1C)c1cccs1	inconclusive [activator, partial curve]	
Cc1c(C(=O)N2CCOCC2)oc2ccccc12		inactive: -1.96%
S=C(c1ccc(-c2ccc(Cl)cc2Cl)o1)N1CCCC1	inconclusive [activator, partial curve]	
COc1ccc(/C=C2\CCC(C3CCCC3)C2=O)cc1 (configuration not stated)	active: 3.98 µM	
O=c1[nH]c2ccccc2n2c(C(F)(F)F)nnc12		inactive: 1.25%

Structure (SMILES)	Potency	activation
CCc1nc2cc([N+](=O)[O-])c([N+](=O)[O-])cc2[nH]1		inactive: 1.95%
COc1cccc(C=Nc2ccc3c(c2)OCCO3)c1O		inactive: 7.38%
Cc1ccc2cc(/C=N/Nc3nc4ccccc4[nH]3)c(Cl)nc2c1	active: 2.82 µM	
C=CCn1c(SCC(=O)NCc2ccccc2)nnc1-c1ccccc1O		inactive: -0.162%
CCCC(=O)Nc1ccc(C2C(=O)c3ccccc3C2=O)cc1	active: 1.58 µM	
O=C(O)c1ccc(N=Nc2c(O)[nH]c3ccccc23)cc1	active: 0.1 µM	
CCOc1ccc2nc(NC(=O)c3ccccn3)sc2c1	active: 0.1 µM	
CCOC(=O)C1CCN(C(=O)c2ccco2)CC1	inconclusive [activator, single point]	
CCOC(=O)c1sc(N/N=C/c2cccc(C)c2)nc1C	inconclusive [activator, partial curve]	
CC(=O)Nc1ccc(OCc2ccc3c(c2)OCO3)cc1	active: 0.631 µM	
COC(=O)c1c(C)[nH]c(O)c1C=Nc1ccc(C(C)C)cc1	inconclusive [activator, partial curve]	
O=C(Nc1ccc(N2CCCC2)c(Cl)c1)c1cccnc1	active: 3.16 µM	
CCOC(=O)c1sc(-c2ccccc2)cc1N	inconclusive [activator, single point]	
O=C(Oc1ccc(-c2nc(-c3ccccn3)no2)cc1)c1ccccc1	inconclusive [activator, full curve]	
CCOC(=O)c1snc(-c2ccc(F)cc2)c1N	inconclusive [activator, single point]	
CCOc1ccc(N=C/C=C/c2ccccc2)c(O)c1	inconclusive [activator, single point]	
Cc1cc(C(=O)Nc2cc(C(C)(C)C)on2)c(C)o1	inconclusive [activator, partial curve]	
Cc1ccc(CNC(=O)C2CC(c3cccc([N+](=O)[O-])c3)=NO2)o1 (configuration not stated)	inconclusive [activator, partial curve]	
Cc1nc2ccc(NC(=O)c3cc(Cl)ccn3)cc2s1	active: 0.708 µM	
CN(CCOc1ccc(Cl)cc1)C(=O)c1cc(-c2ccco2)nc2ccccc12		inactive: -4.4%
c1coc(-c2nnc(-c3ccco3)nn2)c1	inconclusive [activator, partial curve]	

Structure (SMILES)	Potency	activation
COc1ccc(N(CC(=O)NCc2ccco2)C(=O)CNS(=O)(=O)c2ccc(Cl)cc2)cc1		inactive: -3.68%
O=C(Nc1ccc(NC(=O)C2CCCCC2)nc1)c1ccccn1	inconclusive [activator, single point]	
Cc1ccc(-n2ncc3c(SCC(N)=O)ncnc32)cc1C	active: 3.98 µM	
C=C(C)CSc1nncn1/N=C/c1ccc(OC)cc1	inconclusive [activator, partial curve]	
CCn1cnc2cc(NCc3ccccc3Cl)ccc21	inconclusive [activator, single point]	
COc1ccc(NC(=O)c2cccc(OC(F)F)c2)cc1Cl	active: 3.55 µM	
O=C(N/N=C/c1ccc(Cl)cc1)C1CC12CCC2 (configuration not stated)	inconclusive [activator, single point]	
CCc1noc(C)c1C(=O)Nc1nc(-c2ccccc2)cs1	inconclusive [activator, single point]	
CCOc1cc(/C=C2/SC(=Nc3ccccc3)N(Cc3cccnc3)C2=O)ccc1OCC#N		inactive: -2.02%
CCn1cnc2cc(NC(=O)c3ccc(C)cc3)ccc21	active: 2 µM	
Cc1ccc(CNCc2cc(Cl)ccc2O)cc1		inactive: -3.84%
CC(C)(C)C(=O)CC(=O)Nc1ccc(Cl)c(N)c1	inconclusive [activator, partial curve]	
CCOc1ccc(OCC)c(NC(=O)C2CCCN(c3nc(C)cc(C)n3)C2)c1 (configuration not stated)		inactive: 2.42%
COc1ccc(NC(=O)Nc2ccc(N(C)C)cc2)cc1	active: 2.51 µM	
COc1ccc(/C=N/Nc2nc(C(=O)O)cs2)cc1	inconclusive [activator, full curve]	
Cn1nnnc1SCCNC(=O)C1CCC(=O)N(CCc2cccc(F)c2)C1 (configuration not stated)		inactive: -2.05%
c1ccc(CNc2ncnc3sc4c(c23)CCC4)nc1		inactive: -0.465%
O=C(/C=C/Nc1ccccc1F)c1cccs1	inconclusive [activator, partial curve]	
CCc1nc(NC(C)(C)C)c2cnn(-c3ccccc3)c2n1	inconclusive [activator, single point]	
COC(=O)c1ccc(COC(=O)c2ccc(N(C)C)cc2)cc1	inconclusive [activator, partial curve]	
Nn1c(SCC(=O)Nc2nccs2)nnc1-c1ccco1		inactive: -4.18%

Structure (SMILES)	Potency	activation
COc1ccc(Nc2nc(C)c(-c3ccccc3)s2)cc1	inconclusive [activator, partial curve]	
CC/C(=N\NC(=O)c1cc(C2CC2)[nH]n1)c1ccccc1	active: 3.55 µM	
CC(=O)c1cccc(OCc2cc(C(=O)N3CCSCC3)no2)c1	inconclusive [activator, single point]	
COc1cc2c(cc1OC)C(c1ccc(-c3ccccc3Cl)o1)=NCC2		inactive: 17.3%
O=Cc1c(NCCN2CCCC2)c2ccccc2[nH]c1=O		inactive: -9.68%
Cc1ccc(Nc2nc(N)nc(CC#N)n2)cc1	inconclusive [activator, partial curve]	
Cc1cc(/C=C2\SC(=S)N(C)C2=O)c(C)n1-c1cccc(O)c1	inconclusive [activator, single point]	
Cc1ccsc1/C=N/N=C1\C(=O)Nc2ccccc21	inconclusive [activator, single point]	
CN(C(=O)CCc1nc2ccccc2c(=O)[nH]1)C1CCS(=O)(=O)C1 (configuration not stated)		inactive: -2.47%
Cc1cc(C)nc(Nc2n[nH]c(-c3ccc(N)cc3)n2)n1	active: 1.58 µM	
O=C1N(c2ccccc2)CCN1c1ccccc1	active: 0.501 µM	
Cc1ccccc1Nc1nc2ccccc2s1	active: 3.55 µM	
Cn1ccnc1SCC(=O)c1cc2ccccc2o1	inconclusive [activator, single point]	
Cc1cc(N)n2ncc(-c3ccc(F)cc3)c2n1	inconclusive [activator, partial curve]	
Cc1cc(C)c2oc(C(=O)N(Cc3ccccc3)C3CCS(=O)(=O)C3)cc(=O)c2c1 (configuration not stated)	inconclusive [activator, single point]	
CC(C)CSc1nsc(N)n1	inconclusive [activator, partial curve]	
Cc1cccc(-c2cc(N)n(-c3ccccc3)n2)c1	active: 1.26 µM	
COc1cc(-c2nc(CN3CCN(CC(C)C)C(=O)[C@@H]3C)c(C)o2)ccc1F		inactive: -6.53%
CCOC(=O)C(C)Sc1ncnc2c1nnn2-c1ccc(F)cc1 (configuration not stated)	inconclusive [activator, single point]	

Source: PubChem BioAssay AID485313 (National Center for Advancing Translational Sciences (NCATS), 2010)
